In PubChem BioAssay AID1794842 (National Center for Advancing Translational Sciences (NCATS), 2023):
Screen size: about 2,800 compounds; fewer than 10 were called active. The call rests on the fitted dose curve; in most records, active means well fitted curve in the direction sought with a large enough effect; inconclusive means small, poorly fitted or top-dose-only effect, or another doubt; inactive means no such curve, though single readings can be large or run the other way. This is one part of the list.

target: Metallo-beta-lactamase type 2 (Klebsiella pneumoniae) (UniProt C7C422); assay: qHTS to identify inhibitors of the New Delhi Metallo-beta-lactamase (NDM): Meropenem screen against the machine-based learning selections.; further: % of control where 0% means no effect; conditions: Purified NDM-1, meropenem hydrolysis, absorbance 300 nm; at 38.4 µM (top of the series) unless noted
UniProt C7C422, sequence (C7C422 whole entry, looked up): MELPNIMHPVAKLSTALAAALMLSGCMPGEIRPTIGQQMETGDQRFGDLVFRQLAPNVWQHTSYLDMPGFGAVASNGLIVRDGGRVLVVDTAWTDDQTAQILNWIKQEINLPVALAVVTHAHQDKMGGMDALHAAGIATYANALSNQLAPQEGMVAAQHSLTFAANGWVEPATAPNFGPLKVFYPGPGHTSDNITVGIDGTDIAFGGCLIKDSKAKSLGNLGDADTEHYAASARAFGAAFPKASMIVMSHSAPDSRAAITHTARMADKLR
Outline: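 NDM-1 (2 nM final) in 50 mM HEPES pH 7.0, 1 uM Zn2SO4, 0.01% Tween20 was preincubated with compounds for >30 min. Nitrocefin (16.7 uM final) was read at 485 nm after 15 min, and meropenem (50 uM final) at 300 nm after 30 min.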

Activity change, negative = inhibition, inactive:
Cc1cc2c(cc1C(=O)N[C@H](c1ccccn1)C1CC(O)C1)OCCO2 (stereo partly drawn) 2.04%
O=C1N[C@H](CCC(=O)N2CCN(Cc3ccccc3)CC2)C(=O)Nc2ccccc21 -2.17%
O=[N+]([O-])c1ccccc1CN1C[C@H](O)C[C@H]1c1nc(-c2ccncc2)no1 3.82% [at 57.5 µM]
O=C(NCCc1nccc(-c2ccccc2)n1)[C@H]1CCC[C@H](O)C1 -0.234%
CC1(C(=O)NCc2cnccn2)CCCc2cnc(NCc3ccccc3)nc21 (stereo not drawn) -0.945% [at 57.5 µM]
c1ccc(Nc2ncc(-c3ccccc3)c3c2OCC3)cc1 2.64% [at 76.7 µM]
CNC(=O)[C@@H]1CN(C(=O)c2cc3cc(OC)ccc3[nH]2)C[C@H]1CO 14.1%
Cc1noc(C)c1CNCC1(COc2cnccn2)C[C@@H](O)[C@@H](O)C1 (stereo partly drawn) 49.8% [at 57.5 µM]
COc1ccc(CN2C(=O)CO[C@H]3CN(C4CCOCC4)C[C@H]32)cc1 0.907% [at 57.5 µM]
CC(C)(O)CCc1cccc(C(=O)N(Cc2ccc3c(c2)OCO3)C2CC2)c1 0.484%
CSCCCN1C[C@@H](C(=O)O)C[C@H](C(=O)NCc2ccccn2)C1 44.8%
CN1C[C@H](C(=O)NCc2ccncc2)C[C@H]1c1cccc(C(F)(F)F)c1 0.704% [at 57.5 µM]
Cc1ccncc1C(=O)N1CCC2(CC1)CC(c1ccccc1)C(=O)N2C (stereo not drawn) -0.502%
O=C(NC1CCC(O)CC1)C1CCCN(c2nc(-c3ccccc3)nc3c2CCC3)C1 (stereo not drawn) 5.81%
O=C(Cc1c[nH]c2ncc(-c3cccnc3)cc12)NC1CCOCC1 16.6% [at 57.5 µM]
Cc1nc(-c2c3n(c(=O)n(Cc4cccc(Cl)c4)c2=O)CCCCC3)no1 -1.13%
CCOc1cc(C(=O)N2CCN(c3cc(-c4ccc(Cl)cc4)[nH]n3)CC2)cc(OCC)c1OCC 0.171%
CCCNC(=O)N1CC(c2noc(C3CCCN3CC3CC3)n2)C1 (stereo not drawn) -0.243%
Cc1ccc(-c2nnc([C@H]3CCN(Cc4ccc(CO)o4)C3)o2)cc1 0.841% [at 57.5 µM]
C[C@@H](NC(=O)C1CC1)c1onc(-c2ccc(F)cc2)c1C(=O)O 2.28% [at 57.5 µM]
CC(C)CCCC(=O)N1C[C@@H](C(=O)O)C[C@@H](C(=O)NCc2ccncc2)C1 0.381%
CC(C)(O)CCc1cccc(C(=O)NCCNc2cccnc2)c1 6.29%
CCc1ncc(C(=O)Nc2nn(CC(F)(F)F)c3cc(OC(C)C)ccc23)cn1 7.84%
O=C(Nc1cccc(C(F)(F)F)c1)N[C@@H]1C[C@H](CO)[C@@H](O)[C@H]1O 0.574% [at 57.5 µM]
CC(C)CCNC(=O)c1cc(-c2ccncc2)cn1C 8.6%
O=c1ncn(Cc2ccccc2)c2ccc(-c3ccc(O)c(F)c3)nc12 7.75% [at 57.5 µM]
C[C@H](O)c1c(-c2ccc(Cl)cc2)noc1C(=O)NC1CC1 -0.975% [at 57.5 µM]
CN(C)Cc1nnc(C2CC(NC(=O)Cc3c(F)cccc3Cl)C2)n1C (stereo not drawn) 50.9%
Cn1cc(C(NC(=O)c2ccc3c(c2)ncn3CCO)C2CC(O)C2)cn1 (stereo not drawn) 0.34%
COc1ccc(NC(=O)Cc2c[nH]c3ncc(-c4ccccc4)cc23)cn1 2.95% [at 57.5 µM]
COc1ccc(C(=O)N2CC[C@@H](CC(=O)O)[C@@H](CCN3CCN(c4ccccn4)CC3)C2)cc1 19.3%
O=C(Cc1c[nH]c2ncc(-c3ccsc3)cc12)NCc1cccnc1 -0.817% [at 57.5 µM]
O=C(Nc1ccc(F)c(Cl)c1)N1CCCC(Cn2c(C3CC3)nc3cccnc32)C1 (stereo not drawn) 0.164%
COC[C@H]1CCCN1C(=O)CC[C@H]1CNC(=O)[C@@H]2[C@@H](CCN2Cc2cccs2)N1C 0.397% [at 57.5 µM]
COCCC(=O)NCC12CCC=C1N(CC1CC1)C(=O)CC2 (stereo not drawn) 3.99%
NC(=O)c1cccc(-c2n[nH]c3c2CC(=O)N(Cc2ccccc2)C3)c1 2.77% [at 57.5 µM]
Cc1nnnn1Cc1ccc(C(=O)N2CCc3nc(-c4cn[nH]c4)[nH]c3C2)cc1 1.87%
O=C(NCc1nnc2ccc(-c3ccccc3)nn12)c1cc(F)ccc1Cl 0.0548%
O=C1Nc2cc(Cl)ccc2C(=O)N2CCN(C(=O)c3ccccc3)C[C@H]12 -2.45% [at 57.5 µM]
NCCn1cc(C(=O)N2CCCC(c3[nH]ncc3Cc3ccccc3)C2)nn1 (stereo not drawn) 35.9%
COc1cccc(Nc2cc3[nH]ccc3c(C(=O)NCc3c(C)cc(C)[nH]c3=O)n2)c1 19.1% [at 57.5 µM]
CSc1ncccc1C(=O)NC1CCCN(CCCc2ccccc2)C1 (stereo not drawn) 0.314%
COCC(=O)Nc1ccc([C@@H](O)[C@H]2COCC(=O)N2Cc2ccccc2F)cc1 -0.201% [at 57.5 µM]
Nc1nc(C2CC(O)C2)cc(N2CCC(O)(Cn3ccnc3)CC2)n1 (stereo not drawn) 2.82%
O[C@H]1[C@H](NCc2ccc(-c3ccccc3)cc2)[C@H]2CO[C@H](O2)[C@@H]1Oc1ccccc1 -0.362% [at 57.5 µM]
CCCC(C)N1CC2(CCN(C(=O)c3cnn4c3CCCC4)CC2)OC1=O (stereo not drawn) 1.32%
COc1nc2c(cc1CNC(=O)C1CCOC1)C(=O)N(CCc1ccccn1)C2 (stereo not drawn) 3.61%
Cc1cc(C)n(C2CCN(c3ncnc4c3c(C)nn4C)C2)n1 (stereo not drawn) -0.52%
N[C@@H]1CCN(Cc2ccccc2OCc2ccc(Cl)cc2)C[C@H]1O 1.17%
COC(=O)[C@@H]1Cc2ncn(C(C)C)c2CN1S(=O)(=O)c1ccc(OC)cc1 8.07% [at 57.5 µM]
O=C(O)CCC(=O)N[C@H]1CCN2C(=O)c3cc(-c4ccc(Cl)cc4)ccc3NC(=O)[C@H]12 12.6% [at 57.5 µM]
O=C(O)CCn1ncc2cc(OCc3ccc(-c4cncnc4)cc3)ccc21 7.69% [at 57.5 µM]
COc1ccc(Nc2cc3c(cn2)CN(CCc2ccccc2)CCN3)cn1 1.3% [at 57.5 µM]
CN(C)Cc1cc(-c2nccn2CC2(CO)CCCC2)ccc1O -2.01%
CCCCN(C)C(=O)Cc1cccn1-c1cccc(Cl)c1 -1.87%
COc1ccc(-c2cnc3[nH]cc(CC(=O)NC4CCC(O)CC4)c3c2)cc1 (stereo not drawn) 5.54% [at 57.5 µM]
O=C(NC[C@H]1OC[C@@H](NCc2ncc[nH]2)[C@@H]1O)C1CCCC1 10.7% [at 57.5 µM]
OCc1ccc(CN2CC[C@@H](c3ccc4ccccc4c3)[C@H](O)C2)o1 4.83%
O=C(Cc1c[nH]c2ncc(-c3ccccc3)cc12)NCCc1ccccc1 1.88% [at 57.5 µM]
Cc1ccc(C(=O)NC2CCN(c3cn[nH]c(=O)c3)CC2)cc1C 5.44%
O=C(C[C@@H]1CCNC[C@@H]1Cc1cc(CC2CCCCC2)on1)NC1CC1 -0.0742% [at 57.5 µM]
c1cc(CN2CCNc3cc(-c4ccsc4)ncc3C2)ccn1 6.87% [at 57.5 µM]
COc1cccc(NC(=O)O[C@@H]2CC[C@]3(C)C(CC[C@@H](O)[C@H]3CC(=O)N3CCCC3)[C@]2(C)CO)c1 (stereo partly drawn) -0.329%
OC(c1cccc(C(F)(F)F)c1)c1nc(Nc2cccnc2)n[nH]1 (stereo not drawn) 0.817% [at 57.5 µM]
Cc1ccc(NC(=O)Cn2c(-c3ccc(F)cc3)nc(C)c(CCO)c2=O)cc1Cl 2.42%
O=C1N(C2CCCCC2)C[C@H]2CN(Cc3cccc(Cl)c3)CCN12 0.0117% [at 57.5 µM]
Cc1cc(=O)n(CC(=O)Nc2ccc(N(C)C)cc2)c(-c2ccc(Cl)cc2)n1 7.34%
O=C1Nc2ccc(-c3ccccc3F)cc2C(=O)N2C[C@@H](NS(=O)(=O)c3ccc(F)cc3)C[C@@H]12 2.41%
Cc1ccccc1NC(=O)c1cnc2c(c1)N(Cc1ccccc1)CCC2 4.53% [at 57.5 µM]
Fc1ccc(CNc2cc3c(cn2)CN(Cc2ccncc2)CCN3)cc1 3.97% [at 57.5 µM]
Cc1noc(C)c1S(=O)(=O)N1CC(c2noc(C3CCCN3C)n2)C1 (stereo not drawn) -1.35%
O=C(Nc1ccc([C@H]2OCC(=O)N(C3CCOCC3)[C@@H]2CO)cc1)c1cnccn1 10.3% [at 57.5 µM]
CC(C)c1noc([C@@H]2C[C@H](NC(=O)Nc3ccc(F)cc3)CN2C)n1 -1.13% [at 57.5 µM]
CN1CCC(N2C[C@@H]3C[C@H]2C(=O)N(CC2CC2)c2ccccc2O3)CC1 0.475% [at 57.5 µM]
N[C@H]1CN(C(=O)c2sccc2Cl)C[C@@H]1C1CC1 -1.46%
C[C@]1(CO)[C@H]2Cc3sc(NC(=O)c4ccnc(Cl)c4)nc3[C@@H](CC(=O)NCc3ccco3)[C@]2(C)CC[C@H]1O 2.38%
COc1ccc(F)c(-c2nc(CN(C)C(C)c3cccs3)c(C)o2)c1 (stereo not drawn) -1.88%
COCC(=O)N[C@H]1CC[C@]2(C)CC[C@@H](C(C)C(=O)NC3CC3)[C@H](O)[C@H]2[C@@H]1C (stereo partly drawn) 0.573% [at 57.5 µM]
